Reference: patent publication US11814370B2, “Deuterated N-(5-(2,3-dihydrobenzo[b][1,4]dioxine-6-carboxamido)-2-fluorophenyl)-2-((4-ethylpiperazin-1-yl)methyl)quinoline-6-carboxamide” (priority 2016, dated 2023)
Read-outs that look alike come from different tables or passages of the source.

How the values were obtained:
in vitro [1] = details: human, cryopreserved pooled hepatocytes in suspension
in vitro [2] = details: dog, cryopreserved pooled hepatocytes in suspension
in vitro [3] = details: mouse, cryopreserved pooled hepatocytes in suspension
in vitro [4] = details: rat, cryopreserved pooled hepatocytes in suspension
[5] = rat; for Clu: Clu = Cl/fub; for Vdu: Vdu = Vss/fub
in vivo [6] = details: female, Balb/C, mouse, 5 mg/kg
[7] = mouse; for Clu: Clu = Cl/fub; for Vdu: Vdu = Vss/fub
Human Hepatocyte = details: for predicted unbound human clearance: predicted from the in vitro hepatocyte data
[8] = for fup: rat plasma, 5 μM, dialysis 4 h at 37° C.; for fub: rat, fub = fup/B:P
[9] = for fup: mouse plasma, 5 μM, dialysis 4 h at 37° C.; for fub: mouse, fub = fup/B:P
in vivo [10] = details: female, CD, rat

| hepatocyte CLint at 1 μM (in vitro [1]) [µL/min/1e6 cells] | hepatocyte CLint at 1 μM (in vitro [2]; female) [µL/min/1e6 cells] | hepatocyte CLint at 1 μM (in vitro [2]; male) [µL/min/1e6 cells] | hepatocyte CLint at 1 μM (in vitro [3]) [µL/min/1e6 cells] | hepatocyte CLint at 1 μM (in vitro [4]) [µL/min/1e6 cells] | Clu [5] [mL/min/kg] | Vdu [5] [L/kg] | Clu [7] [mL/min/kg] | Vdu [7] [L/kg] | predicted unbound human clearance (Human Hepatocyte) [mL/min/kg] | fup [8] | fub [8] | fup [9] | fub [9] | Structure (SMILES) | further results |
| --- | --- | --- | --- | --- | --- | --- | --- | --- | --- | --- | --- | --- | --- | --- | --- |
| 9 | 73 | 30 | 53 | 25 | – | – | – | – | – | – | – | – | – | [2H]C1([2H])Oc2ccc(C(=O)Nc3ccc(F)c(NC(=O)c4ccc5nc(CN6CCN(CC)CC6)ccc5c4)c3)cc2OC1([2H])[2H] [Compound C, N-(5-(2,3-Dihydrobenzo-d4-[b][1,4]dioxine-6-carboxamido)-2-fluorophenyl)-2-((4-ethylpiperazin-1-yl)methyl)quinoline-6-carboxamide] | – |
| 9 | 40 | 31 | 42 | 38 | 750 | 228 | 833 | 158 | 54 | 0.0344 | 0.032 | 0.0425 | 0.012 | CCN1CCN(Cc2ccc3cc(C(=O)Nc4cc(NC(=O)c5ccc6c(c5)OCCO6)ccc4F)ccc3n2)CC1 [Compound D, N-(5-(2,3-Dihydrobenzo[b][1,4]dioxine-6-carboxamido)-2-fluorophenyl)-2-((4-ethylpiperazin-1-yl)methyl)quinoline-6-carboxamide] | Vd (in vivo [6]): 1.9 L/kg; clearance (in vivo [6]): 10 mL/min/kg; half-life (in vivo [6]): 246 min; AUC(0-t) (in vivo [6]; po): 6.05 µM·h |
| 5 | 73 | 37 | 44 | 24 | 625 | 140 | 1000 | 140 | 30 | 0.0365 | 0.040 | 0.0397 | 0.012 | [2H]C([2H])([2H])C([2H])([2H])N1CCN(Cc2ccc3cc(C(=O)Nc4cc(NC(=O)c5ccc6c(c5)OCCO6)ccc4F)ccc3n2)CC1 [Compound A, N-(5-(2,3-Dihydrobenzo[b][1,4]dioxine-6-carboxamido)-2-fluorophenyl)-2-((4-ethyl-d5-piperazin-1-yl)methyl)quinoline-6-carboxamide] | bioavailability (in vivo [10]): 20%; half-life (in vivo [10]): 210 min; Vd (in vivo [10]; 1 mg/Kg): 5.6 L/kg; clearance (in vivo [10]; 1 mg/Kg): 25 mL/min/kg; ADME advantage in vivo compared to Compound D (in words) [5]: did not show any ADME advantage; ADME advantage in vivo compared to Compound D (in words) [7]: did not show any ADME advantage; predicted improvement in human unbound clearance (Human Hepatocyte; compound A compared to compound D): 2 fold; human hepatocyte stability compared to reference Compound D (in words) (Human Hepatocyte; human hepatocyte stability assay): improved in vitro properties |
| – | – | – | – | 38 | – | – | – | – | – | – | – | – | – | [2H]C1([2H])N(CC)C([2H])([2H])C([2H])([2H])N(Cc2ccc3cc(C(=O)Nc4cc(NC(=O)c5ccc6c(c5)OCCO6)ccc4F)ccc3n2)C1([2H])[2H] [Compound B, N-(5-(2,3-Dihydrobenzo[b][1,4]dioxine-6-carboxamido)-2-fluorophenyl)-2-((4-ethyl-piperazin-d8-1-yl)methyl)quinoline-6-carboxamide] | – |
